Measurements published in PubChem BioAssay AID624418 (National Center for Advancing Translational Sciences (NCATS), 2012).
About 530 (0.13%) of roughly 410,000 compounds were called active. This list was built around the results that the source calls inconclusive (neither active nor inactive); the mix of calls is not that of the screen. The call rests on the fitted dose curve; in most records, active means well fitted inhibition curve with a large enough effect; inconclusive means small, poorly fitted or top-dose-only effect, or another doubt; inactive means no such curve, though single readings can be large or run the other way. Potencies beside an inconclusive call are fits to weak or partial responses and may not hold up.

assay: qHTS of GLP-1 Receptor Inverse Agonists: Cytotox Screen; conditions: HEK293 cAMP-luciferase reporter cells, luminescence, 24 h; activity change, negative = inhibition: at 38.3 µM (top of the series) unless noted
Procedure, shortened: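 1536-well qHTS counterscreen of the MLSMR; 200 cells/uL, 12 h pre-incubation, 23 nL cpd, 24 h at 37 deg C 5% CO2, luciferase detection reagent, 12 min RT, luminescence. Inhibition = undesired.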
On the % scale 0 is the no-effect control and ±100 the full control effect; potency means the concentration at half of the fitted maximal effect.

**Q.** For CC1CN(c2cnn(C(C)C)c(=O)c2Cl)CC(C)O1 (configuration not stated), which Potency is on record?
**A.** The Potency was “inactive”.

**Q.** For CCc1cccc(C)c1NC(=O)c1cc(S(=O)(=O)NCc2ccccc2Cl)ccc1F, which Potency is on record?
**A.** Its Potency is “inactive”.

**Q.** For Cc1csc(NC(=O)c2ccc3ccccc3n2)n1, which activity change, negative = inhibition is on record?
**A.** The activity change, negative = inhibition was inconclusive: -51.1% [inhibitor].

**Q.** Which Potency does the source give for COc1ccc(CNC(=S)NC2CCCCC2)cc1 here?
**A.** The Potency was inconclusive: 11.2 µM [inhibitor, single point].

**Q.** With CC(C)c1ccc(NC(=O)Nc2nc(C(N)CCc3ccccc3)cs2)cc1 (configuration not stated) as the compound, how does the Potency read?
**A.** Its Potency is “inactive”.

**Q.** For COc1cccc(N2CCN(C(=O)C3Cc4ccccc4N3C(C)=O)CC2)c1 (configuration not stated), which Potency is on record?
**A.** Its Potency is “inactive”.

**Q.** Which Potency does the source give for O=C(CC(c1ccccc1)c1ccccc1O)NCc1ccco1 (configuration not stated) here?
**A.** Its Potency is “inactive”.

**Q.** Which Potency does the source give for COc1ccccc1CNc1nc(NCc2ccc(NC(C)=O)cc2)c2sccc2n1 here?
**A.** Its Potency is inconclusive: 14.1 µM [inhibitor, single point].

**Q.** For O=C(CSc1ncnc2scc(-c3ccc(Cl)cc3)c12)NCc1ccc2c(c1)OCO2, which Potency is on record?
**A.** Its Potency is inconclusive: 12.6 µM [inhibitor, partial curve, poor fit].

**Q.** For CCC(C(=O)Nc1cccc(C(=O)O)c1C)c1ccccc1 (configuration not stated), which activity change, negative = inhibition is on record?
**A.** Its activity change, negative = inhibition is inactive: 2.52% [at 7.66 µM].

**Q.** Which Potency does the source give for O=c1c2ccccc2c(-c2ccccc2)nn1-c1ccc(Cl)c(Cl)c1 here?
**A.** The Potency was “inactive”.

**Q.** Which Potency does the source give for COc1ccc(OC)c(Nc2cc(-c3ccccc3)nc(N)n2)c1 here?
**A.** Its Potency is inconclusive: 1 µM [inhibitor, partial curve, poor fit].

**Q.** For O=c1c2cc(Br)ccc2[nH]c(=S)n1Cc1ccccn1, which Potency is on record?
**A.** The Potency was inconclusive: 11.2 µM [inhibitor, partial curve, poor fit].

**Q.** With COc1cc(-c2nnc(SCC(=O)N3CCOCC3)o2)cc(OC)c1OC as the compound, how does the Potency read?
**A.** Its Potency is “inactive”.

**Q.** Which Potency does the source give for O=C1C(C=NCCN2CCOCC2)=C(O)c2ccccc21 here?
**A.** Its Potency is “inactive”.

**Q.** For CCOc1ccc(C(C(=O)Nc2ccc(F)cc2)N(C(=O)Cn2nnc3ccccc32)C2CC2)cc1 (configuration not stated), which Potency is on record?
**A.** Its Potency is inconclusive: 10 µM [inhibitor, single point].

**Q.** With CCN(Cc1nc2ccccc2c(=O)[nH]1)C(=O)COc1ccccc1-c1ccccc1 as the compound, how does the Potency read?
**A.** Its Potency is inconclusive: 20 µM [inhibitor, single point].

**Q.** With COc1cc(/C=C/c2ccc3c(Br)cc(Br)c(O)c3n2)ccc1O as the compound, how does the Potency read?
**A.** Its Potency is inconclusive: 12.6 µM [inhibitor, single point].

**Q.** Which Potency does the source give for Cc1ccc(NC(=S)Nc2cc(-c3ccccc3)[nH]n2)cc1Cl here?
**A.** The Potency was inconclusive: 28.2 µM [inhibitor, single point].

**Q.** With C=CCc1cccc(C=Nc2cccn3cc(-c4ccccc4)nc23)c1O as the compound, how does the Potency read?
**A.** The Potency was “inactive”.

**Q.** Which Potency does the source give for Cn1cnc([N+](=O)[O-])c1S(=O)(=O)Oc1ccccc1 here?
**A.** Its Potency is inconclusive: 10 µM [inhibitor, partial curve, poor fit].

**Q.** With CN1N=C2c3ccccc3CCCC2C1c1ccc(F)cc1 (configuration not stated) as the compound, how does the Potency read?
**A.** The Potency was “inactive”.

**Q.** With Cc1ccc(C2(c3noc(CN(C)Cc4ccccn4)n3)CCCC2)cc1 as the compound, how does the Potency read?
**A.** The Potency was inconclusive: 10 µM [inhibitor, partial curve].

**Q.** With OC(COc1ccc(OCC(O)CN2CCCCCC2)cc1)CN1CCCCCC1 (configuration not stated) as the compound, how does the Potency read?
**A.** The Potency was inconclusive: 5.62 µM [inhibitor, full curve, poor fit].

**Q.** For CCN(CC)S(=O)(=O)c1ccc(C(=O)Nc2ccc(Cc3ccncc3)cc2)cc1, which Potency is on record?
**A.** The Potency was inconclusive: 11.2 µM [inhibitor, single point].

**Q.** Which Potency does the source give for CCNC(=S)Nc1ccc(OCc2nc3ccccc3s2)cc1 here?
**A.** Its Potency is inconclusive: 12.6 µM [inhibitor, single point].

**Q.** Which Potency does the source give for O=[N+]([O-])c1cc(Cl)c2cccnc2c1O here?
**A.** Its Potency is inconclusive: 20 µM [inhibitor, single point].

**Q.** With COc1ccc2c(c1)c(C(O)CN1CCN(Cc3ccc4c(c3)OCO4)CC1)c(C)n2C (configuration not stated) as the compound, how does the Potency read?
**A.** The Potency was inconclusive: 10 µM [inhibitor, single point].

**Q.** Which Potency does the source give for O=C(C[n+]1cnn(CC(=O)c2ccc(Cl)cc2Cl)c1)c1ccc([N+](=O)[O-])cc1 here?
**A.** Its Potency is inconclusive: 28.2 µM [inhibitor, single point].

**Q.** For CCOC(=O)c1c(C)oc2c(F)c(F)c(F)c(F)c2c1=O, which Potency is on record?
**A.** Its Potency is inconclusive: 31.6 µM [inhibitor, single point].

**Q.** With O=C(Nc1nnc(C(F)(F)F)s1)c1ccc(Br)s1 as the compound, how does the Potency read?
**A.** The Potency was inconclusive: 14.1 µM [inhibitor, single point].

**Q.** Which Potency does the source give for COc1ccc(CCNC(=O)Cc2ccsc2)cc1 here?
**A.** The Potency was inconclusive: 17.8 µM [inhibitor, partial curve, poor fit].

**Q.** Which Potency does the source give for COc1ccc(C(=O)C2CCCN(Cc3cccn3-c3ccc(Cl)cn3)C2)c(OC)c1 (configuration not stated) here?
**A.** The Potency was inconclusive: 25.1 µM [inhibitor, single point].

**Q.** With COc1ccc(-c2oc3cc(O)c(OC)c(O)c3c(=O)c2OC)cc1O as the compound, how does the Potency read?
**A.** The Potency was inconclusive: 2 µM [inhibitor, full curve].

**Q.** With CCCCc1ccc(NC(=S)NCCN2CCOCC2)cc1 as the compound, how does the Potency read?
**A.** Its Potency is inconclusive: 28.2 µM [inhibitor, single point].

**Q.** For CCOC(=O)c1cnc(-n2nc(C)cc2C)nc1NNc1ncc(-c2ccccc2)cn1, which Potency is on record?
**A.** The Potency was inconclusive: 12.6 µM [inhibitor, single point].

**Q.** For O=C(Nc1cccc(S(=O)(=O)Nc2ccc(Cl)cc2)c1)c1cc2c(s1)CCCC2, which Potency is on record?
**A.** The Potency was inconclusive: 28.2 µM [inhibitor, single point].

**Q.** Which Potency does the source give for N/C(=N\OC(=O)c1ccc2c(c1)OCO2)c1ccc(Br)cc1 here?
**A.** Its Potency is inconclusive: 31.6 µM [inhibitor, single point].

**Q.** For CCOC(=O)c1nc(S(C)(=O)=O)ncc1Cl, which Potency is on record?
**A.** Its Potency is inconclusive: 28.2 µM [inhibitor, single point].

**Q.** Which Potency does the source give for COc1ccc2[nH]c3c(N4CCc5ccccc5C4)ncnc3c2c1 here?
**A.** Its Potency is inconclusive: 0.447 µM [inhibitor, full curve, poor fit].

**Q.** For COc1cc(C(=O)Nc2ccc3c(c2)nc(C)n3C)cc(OC)c1OC, which Potency is on record?
**A.** Its Potency is inconclusive: 6.31 µM [inhibitor, partial curve, poor fit].

**Q.** For NC(=O)[C@H]1CC2(CC(c3cccc(NC(=O)COc4ccc(Cl)cc4)c3)=NO2)CN1C(=O)C(c1ccccc1)c1ccccc1 (some centres not stated), which Potency is on record?
**A.** The Potency was inconclusive: 22.4 µM [inhibitor, single point].

**Q.** With Cc1cc(Sc2ncnc(N)c2[N+](=O)[O-])ncn1 as the compound, how does the Potency read?
**A.** Its Potency is inconclusive: 28.2 µM [inhibitor, single point].

**Q.** With O=C(CNC(=O)c1ccco1)OCc1ccc(C(=O)Oc2ccccc2)cc1 as the compound, how does the Potency read?
**A.** The Potency was inconclusive: 12.6 µM [inhibitor, single point].

**Q.** For COc1ccc2c(c1)c(=Cc1ccc(N(C)C)cc1)c1cc(-c3ccccc3)[n+](C)n12, which Potency is on record?
**A.** The Potency was inconclusive: 28.2 µM [inhibitor, single point].

**Q.** Which Potency does the source give for COc1c(C(=O)Nc2ccc(Br)cn2)ccc2ccccc12 here?
**A.** Its Potency is “inactive”.

**Q.** Which Potency does the source give for Cc1nnc(N2CCC(C(=O)Nc3ccc(F)cc3)CC2)c2nn(-c3ccc(Cl)cc3)c(C)c12 here?
**A.** The Potency was inconclusive: 12.6 µM [inhibitor, single point].

**Q.** Which Potency does the source give for CN(Cc1ccccc1F)C(=O)C(Cc1ccccc1)NC(=O)c1ccccc1 (configuration not stated) here?
**A.** Its Potency is inconclusive: 20 µM [inhibitor, single point].

**Q.** Which Potency does the source give for COc1ccc(CNC(=O)CN(C(=O)c2csnn2)c2ccc(C(C)=O)cc2)cc1 here?
**A.** Its Potency is “inactive”.

**Q.** For CCOC(=O)c1ccc(NC(=S)N(CCCN2CCCC2)Cc2ccco2)cc1, which Potency is on record?
**A.** The Potency was inconclusive: 28.2 µM [inhibitor, single point].

**Q.** Which Potency does the source give for O=C(OCC(=O)N1CCN(C(=O)c2ccco2)CC1)c1cc(-c2ccccc2)nc2ccccc12 here?
**A.** The Potency was inconclusive: 8.91 µM [inhibitor, partial curve].

**Q.** Which Potency does the source give for CNC(=S)N/N=C/c1ccc(C(C)C)cc1 here?
**A.** The Potency was inconclusive: 22.4 µM [inhibitor, single point].

**Q.** With CCOC(=O)c1cc(-c2ccc(C)cc2)n(CC(=O)Nc2ccccc2F)c1C as the compound, how does the Potency read?
**A.** Its Potency is “inactive”.

**Q.** Which Potency does the source give for N/C(=N\N=C/c1ccc(F)cc1)N/N=C\c1ccc(F)cc1 here?
**A.** The Potency was inconclusive: 17.8 µM [inhibitor, single point].

**Q.** With COc1ccccc1N1CCN(C(=O)c2ccc(-c3nc4ccccc4s3)o2)CC1 as the compound, how does the Potency read?
**A.** Its Potency is inconclusive: 22.4 µM [inhibitor, single point].

**Q.** With Cc1[nH]c2ccccc2c1C(=O)CN1CC(C)CC(C)C1 (configuration not stated) as the compound, how does the Potency read?
**A.** The Potency was inconclusive: 11.2 µM [inhibitor, partial curve, poor fit].

**Q.** Which Potency does the source give for CCn1c(N2CCN(S(=O)(=O)c3ccc(OC)cc3)CC2)nc2ccccc21 here?
**A.** Its Potency is “inactive”.

**Q.** For O=C1c2cc([N+](=O)[O-])ccc2-c2cc(Br)c(N=C(NO)C(F)(F)F)cc21, which Potency is on record?
**A.** Its Potency is inconclusive: 28.2 µM [inhibitor, single point].

**Q.** Which Potency does the source give for COc1cc(/C=C2\C(=O)NN(c3ccc(C)cc3)C2=O)cc([N+](=O)[O-])c1O here?
**A.** The Potency was inconclusive: 28.2 µM [inhibitor, single point].

**Q.** With Cc1ccsc1/C=N/NC(=O)c1cccnc1 as the compound, how does the Potency read?
**A.** The Potency was inconclusive: 10 µM [inhibitor, single point].

**Q.** For CCCSc1nsc(NC(=O)C(c2ccccc2)c2ccccc2)n1, which Potency is on record?
**A.** The Potency was inconclusive: 20 µM [inhibitor, single point].

**Q.** Which Potency does the source give for COc1ccc(OCC(=O)NCC(c2ccc(OC)cc2)N2CCCCC2)cc1 (configuration not stated) here?
**A.** The Potency was “inactive”.

**Q.** With COc1ccc(/C=C/C(=O)NNC(=O)C(C)Oc2ccccc2F)cc1OC (configuration not stated) as the compound, how does the Potency read?
**A.** Its Potency is inconclusive: 28.2 µM [inhibitor, single point].

**Q.** With COc1ccccc1NC(=O)C1=C(C)Nc2nc(SCc3ccccc3Cl)nn2C1c1ccccn1 (configuration not stated) as the compound, how does the Potency read?
**A.** The Potency was “inactive”.

**Q.** With OCC1C2c3ccccc3C(c3ccccc32)C1CO (configuration not stated) as the compound, how does the Potency read?
**A.** Its Potency is inconclusive: 10 µM [inhibitor, partial curve, poor fit].

**Q.** With Cc1ccc(C)c(CN2C(=O)c3ccccc3S(=O)(=O)c3ccc(C(=O)NCCCN4CCCC(C)C4)cc32)c1 (configuration not stated) as the compound, how does the Potency read?
**A.** Its Potency is inconclusive: 11.2 µM [inhibitor, single point].

**Q.** With CNC(=S)N/N=C(\C)c1ccc(Cl)s1 as the compound, how does the Potency read?
**A.** The Potency was inconclusive: 5.01 µM [inhibitor, full curve, poor fit].
